Sequences and labels used below:
T1: UNK ZnF1-3 (human, UniProt Q9C0B0 31-174)
T1 sequence: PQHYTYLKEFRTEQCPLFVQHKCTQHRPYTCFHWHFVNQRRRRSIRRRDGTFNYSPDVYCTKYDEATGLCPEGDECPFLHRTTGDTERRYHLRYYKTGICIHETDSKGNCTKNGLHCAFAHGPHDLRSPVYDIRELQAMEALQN

B1: chr2:198351390:198351391:-_ENSG00000144381_ENST00000345042|hu_hu|hu_hu_hu_mus_False|1_38 (ssRNA)
RNA: GGGAGUUCUACAGUCCGACGAUCUCAUUCCCACCCUCCACAGAAAGGCUGCUUCUGAACUCUCAUGUGGUGACACAGCGCUACAGUCCUGAUGCUCACAGAAUAGUAGAGAUGCCUCAGUGAUUUAAGUUGAAAGCAGCAGUACAACAGAGGAUUGAGCAUCA
B2: chr6:38652254:38652255:-_ENSG00000124767_ENST00000373365|hu_hu|hu_hu_hu_mus_False|28_28 (ssRNA)
RNA: GGGAGUUCUACAGUCCGACGAUCCGAGAACUUCAUAGCAGGGAAGUCAAGCUUCUGCAGGAGGGUCAGUCCAAGAACCCUCGUAUAAAAAUCCAGGGACUUCUUAGGAUCCUUCACUCUUAGCAUCGUUUGCUGCAGUAGAAACAACAGAGGAUUGAGCAUCA
B3: chr5:143539998:143539999:-_ENSG00000145817_ENST00000274496|hu_hu|motif|central (ssRNA)
RNA: GGGAGUUCUACAGUCCGACGAUCUUUUCAAAAGACGGAAAUCAGGGCAAAGACUCCAUAUAACAAAGCGCAAGGAUAUGCGGCGGAAAGUUGCUGUCCUUCCAUGGCUAAUGCAGAAAUAAAUAUUUUGGAAGCAGAAAAACUCAACAGAGGAUUGAGCAUCA
B4: 127655467_127657569_92_3pUTR_ENSMUSG00000027379_ENSMUST00000028858|mouse|control|control (ssRNA)
RNA: GGGAGUUCUACAGUCCGACGAUCAACAUGCGAAAGACAUUUUCUAGGUUGUCCAUGACGAGAAAAAACGCGCAGCGGCGAAAUACCCCACCAGCCGCCGACCAAACUCCCCAUCAGCCCCUAACCCCGAGUCUCGAAGGCCGCCAACAGAGGAUUGAGCAUCA
B5: chr11:77336104:77336105:-_ENSG00000074201_ENST00000525064|hu_mus|hu_hu_hu_mus_False|58_98 (ssRNA)
RNA: GGGAGUUCUACAGUCCGACGAUCCUCACACAUUGCUGUGAACAUUGCCUCCAAUGCUGACUUAUCACUGGGCACAAAUCUAAAUUCAGAAAUGGGUUCAACAUCAUCAUUGUCUUCCUCAUCUUCAUCAGAGAGAGGUUCUUUCAACAGAGGAUUGAGCAUCA
B6: chr1:39494564:39494565:+_ENSG00000168653_ENST00000372967|hu_hu|hu_hu_hu_mus_True|78_88 (ssRNA)
RNA: GGGAGUUCUACAGUCCGACGAUCAUGCAUUCGCCUCAUCGUUUUGUGCCGAAGCAAACACUCUACGAAGUCAUCGAACUCUAUCUUGCACUCCUUUUUCGCCCGGGUCCCACCGAUCCCGUGUGCACACUCUAUCCACUCUUUCAACAGAGGAUUGAGCAUCA
B7: chr12:1897663:1897664:+_ENSG00000006831_ENST00000357103|hu_hu|FALSE|FALSE (ssRNA)
RNA: GGGAGUUCUACAGUCCGACGAUCUUGUGGCUUUAGCAUAAUUUAUAAAGGGGAAGAGGGAAAAUACUGAAAAAGGCCACUAUUUAAUGGUGAAAGAAUGAAGCUGUAGAGGUCCCAACCAGCCUAGGGCCAAAAAAGAAAAUUCAACAGAGGAUUGAGCAUCA
B8: chr5:43656058:43656059:+_ENSG00000112992_ENST00000512996|hu_hu|FALSE|FALSE (ssRNA)
RNA: GGGAGUUCUACAGUCCGACGAUCGUAGGCCACAAUCUUGGUGAGAUUUGCUGCUGCAUCCGUAGCAAAAUGUGGAUAUUCUAUAAUGUACUCAGCUAUGCAAGUAAGUACAGCUGCCAAACCCACUAAACUGUGAAAAGCAGCCAACAGAGGAUUGAGCAUCA
B9: 74036505_74037053_1752_CDS_ENSG00000167881_ENST00000307877|human|control|control (ssRNA)
RNA: GGGAGUUCUACAGUCCGACGAUCGUCCUUGACUUGGGAGGAGGAGGUCUCUGUUUGAUGAGCGUCGUUUGCAUCAAGGAUGGCUGCGGCCUGCAGGGAGCACUUCUCUGACCGCACUUGAGUGAUGAGCUCUUGCACAUCAGGCAACAGAGGAUUGAGCAUCA
B10: 56982380_56985783_411_CDS_ENSG00000008988_ENST00000519807|human|control|control (ssRNA)
RNA: GGGAGUUCUACAGUCCGACGAUCAGAUUCGAUCAACUCAACUCCUGGCUCAAUACUGAUGGAAGUAAUCUGCUUAACAAUCUCAGAAGGACUGUGCAAGUCAAUGAGUCGCUUGUGAAUUCUCAUCUGGAAACGAUCCCACGUCAACAGAGGAUUGAGCAUCA
B11: chr1:39494447:39494448:+_ENSG00000168653_ENST00000372967|hu_mus|hu_hu_hu_mus_False|38_98 (ssRNA)
RNA: GGGAGUUCUACAGUCCGACGAUCGCACCGAGCGGCGAUCUUGUAGGGCUGUUCUGCGCUUAGGAACAUAAAGUGCCGGUCCAGGCUGAUGCCCAGCCUUUUCUGGAUGUCAAGGAAAGGCAUGGCUCUGCAGUGCCCUUGUCACAACAGAGGAUUGAGCAUCA
B12: chr2:155494191:155494192:-_ENSMUSG00000038324_ENSMUST00000041059|mus_hu|motif|central (ssRNA)
RNA: GGGAGUUCUACAGUCCGACGAUCUUCAUCACUUAUUUUCAGUUUCUGUCCCCGGAUAGAGAUCGUAGGCCUCAUAAGAAUUUCGGCAAGAAGAUCAACACCUCCAAACAAGUCAAAAAUGUAAGUAUUUGGAUAAGUGGUUUCCAACAGAGGAUUGAGCAUCA
B13: chr7:118225073:118225074:-_ENSMUSG00000005610_ENSMUST00000162415|mus_hu|FALSE|FALSE (ssRNA)
RNA: GGGAGUUCUACAGUCCGACGAUCGCACUGAAACGAGAAGCACCCCCUUCUGCAAUCGCACUCUCCACUUUGGCGGCUUGACAACGAAGAAUCUUCAAAAGAAUAAUAUUAAUAGAUGGGGUGGGGAGGGGAGGGGACAGGAGACAACAGAGGAUUGAGCAUCA
B14: chr12:39687547:39687548:-_ENSG00000139116_ENST00000551264|hu_hu|FALSE|FALSE (ssRNA)
RNA: GGGAGUUCUACAGUCCGACGAUCACAUCAACAAUGUUUCCCAUCACAGAAUAUAUGCACAGCACUGGAAAAAAAAAAAAAAAUUAACAGCAUUUUAGUCCUGAGCACAGAAUAUAGUAGAGCUGCAAAACUUUGGUCAAUACACAACAGAGGAUUGAGCAUCA
B15: 39905808_39910131_1716_3pUTR_ENSG00000121892_ENST00000303538|human|control|control (ssRNA)
RNA: GGGAGUUCUACAGUCCGACGAUCCCACCGUUUAUCCAGUGUUCUUUCCCUUACAAAGCCAAGCAGCUGAUCAUUUACUAAGGCCAGGUCCCUCUUGGCAGCUGUUAUUAUAGUAACAAUGACAUCAUGACGAAUAGCUUCUUCCAACAGAGGAUUGAGCAUCA
B16: chr10:33190432:33190433:-_ENSG00000150093_ENST00000302278|hu_mus|hu_hu_hu_mus_True|38_78 (ssRNA)
RNA: GGGAGUUCUACAGUCCGACGAUCUACAUUUUCCAAACCUGCAUGUGAAUAAAACCCUGGCAAUAUUGCCCCAAAACUACCCUACUGUGACUAAGAUAAUUGCUACUUGAGCUUGGUGUUGCAAAAUCCGCCUGAGUAGGAUUCCAACAGAGGAUUGAGCAUCA
B17: 59419958_59420328_1429_CDS_ENSG00000166889_ENST00000300146|human|control|control (ssRNA)
RNA: GGGAGUUCUACAGUCCGACGAUCUUUGGCCACCUGAGGGGUGAUAAGCUUGGUGCGCUCCUUCUUAGGGCCAUCACCUUGUAUUUCUUCAGCAGCUGACAGUUUCUCCAGUUUUUCAAAGUAAUUCUGGUAAUAAAAAUCAUCCAACAGAGGAUUGAGCAUCA
B18: 22874823_22874943_2137_CDS_ENSG00000008853_ENST00000522948|human|control|control (ssRNA)
RNA: GGGAGUUCUACAGUCCGACGAUCGGCUGCCGAGGAAGACGGGGAGGAUGGACUGUUCCAGAAGAGCCAACGCCGUUUGGGCUGCCGCUUGAGGUGGAGGUAGUCCUCCUUCUCACGCUCCUUCCGUGCCCGCUGGUAAUGAUCCAACAGAGGAUUGAGCAUCA
B19: 93646273_93653560_803_CDS_ENSMUSG00000027198_ENSMUST00000028623|mouse|control|control (ssRNA)
RNA: GGGAGUUCUACAGUCCGACGAUCAAAGCCGCCACCAGCCAGCAGUGCCCUGUCUCUGGGGACAUCCAGGGCAGUGUUGUAAUCUGGGGGAGCUCCAGGCAACAUAUUGAACAGCAGGUGAUUUGUUCCUCGAUCCCACCUGGACAACAGAGGAUUGAGCAUCA
B20: chr3:148802587:148802588:-_ENSG00000071794_ENST00000310053|hu_mus|hu_hu_hu_mus_False|28_48 (ssRNA)
RNA: GGGAGUUCUACAGUCCGACGAUCUCCAACAACUUGUCCUCUCAUAGUUCCAAAUAAAACCAAAUCUUGCUCUUCAUCACUCGUUAGAAAGUCAUCUGGAGGAAUAACAUCUUGGAAUUCAAAAUGUGGCAAGAAAGUUGAGUACAACAGAGGAUUGAGCAUCA
B21: chr10:33190432:33190433:-_ENSG00000150093_ENST00000302278|hu_mus|hu_hu_hu_mus_True|38_38 (ssRNA)
RNA: B16 RNA with A61C, U63C, U65G, U66A
B22: chr11:50196439:50196440:+_ENSMUSG00000007850_ENSMUST00000069304|mus_hu|motif|central (ssRNA)
RNA: GGGAGUUCUACAGUCCGACGAUCCCCGUAUCUGUGAUCAGACAUUCCUGAAAAACAGUAAUUGAGGUCUCUUCCAAAUCGGUCUGACCCAAAUCCAUAGCCAUCAUUAUAGCCAUUGUAAUCAUCAUAGCCUCCAUAGCCUCCCAACAGAGGAUUGAGCAUCA

Substitutions are numbered along the chain they refer to. Some of the results follow.

The assay concerns the target T1, UNK ZnF1-3. The assay can be described thus: nsRBNS (natural sequence RNA bind-n-seq); RBNS binding buffer (assumed for nsRBNS): 25 mM Tris pH 7.5, 150 mM KCl, 3 mM MgCl2, 0.01% Triton X-100, 500 ug/ml BSA, 20 U/ml SUPERase-In, 4 C; UNK is unkempt and MSI1 is Musashi-1; names of the RNAs are library labels; protein concentration not given here; high values mean tight binding.
In the case of B1, the binding signal was found to be 1.3 enrichment R.
B2: the binding signal amounted to 0.66 enrichment R.
For B3 the value was 1.69 enrichment R; for B4, 1.4 enrichment R.
As for B5, the binding signal is 1.06 enrichment R.
For B6 the value was 0.657 enrichment R.
As for B7, the binding signal was 2.47 enrichment R.
The molecule B8 yielded a binding signal of 0.886 enrichment R.
Turning to B9, the binding signal is 0.988 enrichment R.
With B10, the binding signal was 0.895 enrichment R.
B11: the binding signal is 0.452 enrichment R.
Consider B12, for which the binding signal stood at 1.43 enrichment R.
The value for B13 was 2.44 enrichment R; that for B14 was 2.95 enrichment R; that for B15 was 0.955 enrichment R.
In the case of B16, the binding signal stood at 0.989 enrichment R.
In the case of B17, the binding signal stood at 0.657 enrichment R.
Take B18: the binding signal amounted to 0.422 enrichment R.
On to B19, for which the binding signal was 0.901 enrichment R.
For the molecule B20, the binding signal was found to be 1.42 enrichment R.
B21 gave a binding signal of 0.973 enrichment R.
The value for B22 was 1.02 enrichment R.
